In all, about 110,000 compounds were measured (“z-score”: median about -0.1, highest 2% from about 2 on). This is one part of the list.

The target in this assay is Metabotropic glutamate receptor 8 (Rattus norvegicus) (UniProt P70579). As to the kind of experiment: rat mGluR8 modulators via GIRK flux, primary screen, cell-based, thallium flux, HTS (AID 488969). To be noted: HEK293 rat mGluR8, GIRK (G protein-gated inwardly rectifying potassium channel) thallium flux, FluoZin2; at 10 µM; stronger effect = higher value; submaximal glutamate (EC20) added with thallium.
Chain of UniProt P70579 (P70579 whole entry, looked up): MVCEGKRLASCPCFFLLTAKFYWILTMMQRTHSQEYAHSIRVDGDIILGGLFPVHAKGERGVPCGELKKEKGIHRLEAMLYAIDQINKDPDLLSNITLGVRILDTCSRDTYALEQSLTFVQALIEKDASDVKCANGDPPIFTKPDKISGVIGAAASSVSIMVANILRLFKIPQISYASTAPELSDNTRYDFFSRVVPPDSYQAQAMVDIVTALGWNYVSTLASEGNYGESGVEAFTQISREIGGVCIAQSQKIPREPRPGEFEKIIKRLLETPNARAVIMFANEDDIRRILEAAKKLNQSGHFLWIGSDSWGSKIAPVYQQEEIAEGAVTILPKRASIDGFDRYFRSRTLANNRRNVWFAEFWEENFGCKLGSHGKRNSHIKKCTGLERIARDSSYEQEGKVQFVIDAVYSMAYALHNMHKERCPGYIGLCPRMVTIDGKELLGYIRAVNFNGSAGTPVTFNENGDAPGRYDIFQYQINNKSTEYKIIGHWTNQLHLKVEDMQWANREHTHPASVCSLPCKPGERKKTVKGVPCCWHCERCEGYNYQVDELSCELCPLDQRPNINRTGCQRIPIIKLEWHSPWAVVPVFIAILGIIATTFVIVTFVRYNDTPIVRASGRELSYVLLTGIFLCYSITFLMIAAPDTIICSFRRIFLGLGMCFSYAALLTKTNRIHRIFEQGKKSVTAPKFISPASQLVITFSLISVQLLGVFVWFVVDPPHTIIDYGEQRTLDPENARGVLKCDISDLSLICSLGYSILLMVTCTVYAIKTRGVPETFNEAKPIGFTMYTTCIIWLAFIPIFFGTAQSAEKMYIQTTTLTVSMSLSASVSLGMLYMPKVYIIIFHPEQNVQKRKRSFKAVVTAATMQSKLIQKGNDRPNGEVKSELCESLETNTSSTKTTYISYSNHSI
In the case of `Cc1ccc(/C=C(/C#N)c2nc(CCN3C(=O)c4ccccc4C3=O)cs2)cc1`, the z-score is -0.248. In the case of `CC(=O)Nc1ccccc1-c1nnc(SCc2ccccc2Cl)[nH]c1=O` it was -0.587; in that of `Cc1nn(Cc2ccccc2)c(Cl)c1C(=O)OCC(=O)NC(=O)NC12CC3CC(CC(C3)C1)C2`, -0.127; in that of `CNc1nnc(-c2cccc(N(C)C)c2)s1`, 0.126.

With `CCc1cccc(C)c1NC(=O)COC(=O)c1c2c(nc3ccccc13)/C(=C\c1cccs1)CCC2`, the z-score is -0.196. The result for `Cc1ccc(C(C)C)c(OCCCN(C)Cc2ccccc2)c1` reads -1.64; that for `Cn1c(C(=O)N2CCN(C3CCCCC3)CC2)cc2c(=O)n(C)c3ccccc3c21`, 0.387. In the case of `Fc1ccc(CNc2cnccn2)cc1` it was 0.0947. The result for `CCN(CC)CCCNC(=O)C1c2ccccc2C(=O)N(C)C1c1ccc(OC)cc1` (stereo unspecified) reads -0.0495; that for `Cc1ccc(S(=O)(=O)NNC(=O)c2ccncc2)cc1`, -0.0308. In the case of `CCc1nc(SCC(=O)Nc2cc(C)on2)c2c(C)c(C)sc2n1`, the z-score was -0.346.

Regarding `COCCNc1cc(C)nc2ccccc12`, the z-score turned out to be 0.0686. In the case of `CCOC(=O)N1CCN(C(=O)CN2C(=O)CC(C)(C)S(=O)(=O)c3ccccc32)CC1` it was -0.198; in that of `CCCC(=O)Nc1c(-c2cccs2)c(=O)c2ccccc2n1CC`, -0.138. Molecule `COc1ccc(CNC(=O)C(c2ccncc2)N(C(=O)Cc2cccs2)c2ccc(C)cc2)cc1` (stereo unspecified) showed a z-score of -0.278. The result for `COc1ccc(C(CNC(=O)c2ccc(OCC3CCCO3)cc2)N2CCOCC2)cc1` (stereo unspecified) reads -0.0369. The result for `CCOc1ccc(NC(=O)C(=O)N/N=C\c2ccc(CNS(=O)(=O)c3ccccc3)o2)cc1` reads -0.205; that for `NC1=NC(=O)/C(=C/c2ccccc2OS(=O)(=O)c2ccc3ccccc3c2)S1`, -0.052; that for `COc1ccc(N(C(=O)c2ccco2)C(C(=O)NC2CCCCC2)c2cccs2)cc1OC` (stereo unspecified), -0.187. Molecule `CCN(CC)c1ccc(C2C(C(=O)OC)=C(C)NC(C)=C2C(=O)OC)cc1` yielded a z-score of 0.449. The result for `CCC(C(=O)O)N1C(=O)/C(=C/c2cccn2C)SC1=S` (stereo unspecified) reads -0.533; that for `CCN(CC)S(=O)(=O)c1ccc(OC)c(NC(=O)c2cccc([N+](=O)[O-])c2C)c1`, -0.151. The result for `Cc1nc2cc(NC(=O)NCCC3=CCCCC3)ccc2o1` reads -0.45. The result for `O=C1C(=O)N(CCCn2ccnc2)C(c2cccnc2)/C1=C(/O)c1ccccc1` (stereo unspecified) reads -0.0867; that for `CCOC(=O)C1CCCN(C2CC(=O)N(c3cccc(C(F)(F)F)c3)C2=O)C1` (stereo unspecified), -0.0457. `CCOc1ccc2c(c1)C(c1ccccc1)=NNC(c1ccccc1)=N2`: the z-score was found to be 0.0502.

As for `CCOC(=O)C1C(=O)NC(c2ccccc2)=NC1c1ccc(Cl)cc1` (stereo unspecified), the z-score was -0.236. In the case of `COc1ccccc1NC(=O)CSc1nc2n[nH]c(C)c2c(=N)n1-c1ccccc1Cl` it was 0.184.

Take `CC1CC(C)CN(S(=O)(=O)c2ccc(NC(=S)NC(=O)c3ccccc3)cc2)C1` (stereo unspecified): the z-score was -0.0543. In the case of `Cc1ccc2cc3c(NC(=O)c4ccco4)nn(CC(C)C)c3nc2c1` it was 0.236. In the case of `O=C(NCCc1ccccc1)c1ccc([N+](=O)[O-])cc1` it was 0.0109; in that of `COCc1nnc(NC(=O)CC(C)c2ccccc2)s1` (stereo unspecified), 0.602; in that of `CCNc1cc(=O)n(C)c(=O)n1C`, -0.258. In the case of `CNc1nc(-c2ccccc2)nnc1C(F)(F)F` it was 0.0523; in that of `CC(C)NC(=O)NC(=O)COC(=O)c1ccc(NC(=O)CC#N)cc1`, -1.18; in that of `CCCn1c(SCc2nc3sc(C)c(C)c3c(=O)[nH]2)nc2ccccc2c1=O`, 1.3. Molecule `Cc1ccc(C(c2nnnn2CCC(C)C)N2CCN(C)CC2)cc1` (stereo unspecified) displayed a z-score of 0.783. With `Cc1cc(C(=O)Nc2cccc(O)c2)c(C)o1`, the z-score stood at 0.184. The result for `Cc1ccc(NC(=O)c2ccc(NCCN)c([N+](=O)[O-])c2)cc1` reads 0.0211.

Consider `Cc1cc(C)c2c(c1)C1C=CCC1C(c1ccc(S(=O)(=O)N3CCOCC3)cc1)N2` (stereo unspecified), for which the z-score was -0.0689. In the case of `CCOC(=O)C1CCN(C(=O)/C=C/c2cc(OC)c(OC)c(OC)c2)CC1` it was 0.0221.

Molecule `Cc1nn(-c2cc(N3CCCC3)ccc2[N+](=O)[O-])c(=O)c2ccccc12` showed a z-score of -0.519.

Regarding `COc1ccc(/C(N)=N/OC(=O)CCCc2ccccc2)cc1OC`, the z-score was -0.242. The result for `COc1ccc(NC(=O)CSc2ccc(C)cc2)cc1` reads -0.0185. In the case of `COc1ccc(N2C(N)=C(C#N)C(c3cccnc3)C3=C2CC(C)(C)CC3=O)cc1` (stereo unspecified) it was -0.207. `Cc1cc(NC(=O)CCn2c(=O)sc3ccccc32)no1` registered a z-score of -0.449.

Take `COc1cc(C(=O)Nc2ccccc2N2CCN(S(C)(=O)=O)CC2)cc(OC)c1OC`: the z-score is -0.162.

For `Cc1cc2c(=O)n(Cc3ccco3)c(SCC(=O)NCc3ccco3)nc2s1`, the z-score was -0.124.

In turn, `O=C(/C=C/c1cc([N+](=O)[O-])ccc1OC(F)F)Nc1cccc(OC(F)F)c1` displayed a z-score of 0.0478.

For the molecule `COc1ccc(CCN(C)c2ccc(S(=O)(=O)N3CCCC3)cc2[N+](=O)[O-])cc1OC`, the z-score worked out at 0.0834. In the case of `COc1cc2c(C(=O)NCc3ccc4c(c3)OCO4)cn(C)c(=O)c2cc1OC` it was -0.397; in that of `CCOC(=O)Nc1cc(OCC)c(NC(=O)C2CC2)cc1OCC`, -0.0807; in that of `Cc1cnc(NC(=O)c2cc3c(C)nn(-c4ccccc4)c3s2)s1`, -0.311. In the case of `COc1cccc(C2N(c3cccc(Cl)c3)C(=O)C3CCCN32)c1` (stereo unspecified) it was -0.742. In the case of `CCc1ccc2oc(-c3cc(N=Cc4cccc(OC)c4O)ccc3O)nc2c1` it was -0.649. In the case of `CCOC(=O)c1ccc(S(=O)(=O)N2CCN(CC(=O)NC(=O)NC(C)(C)C)CC2)cc1`, the z-score was -0.0131. In the case of `Cc1cccc(-n2c(C)cc(/C=N/n3cnnc3)c2C)c1` it was -0.128; in that of `Cc1ccc(Cl)cc1N1CCN(CC(O)COCc2ccco2)CC1` (stereo unspecified), -0.376.

The molecule `CCOc1ccccc1CNC(=O)CCN1C(=O)COc2ccccc21` returned a z-score of 0.436.

With `Cc1cccc(NC2(C(F)(F)F)N=C3SCCN3C2=O)n1` (stereo unspecified), the z-score is -0.397. `COc1ccc(C)cc1NC(=O)c1ccc2c(c1)OCO2` had a z-score of 0.143. In the case of `O=C(CCl)Nc1cc(-c2ccccc2)nn1-c1ccccc1` it was -0.105; in that of `c1ccc(CSCCc2ccncc2)cc1`, 0.315. In the case of `O=C(COC(=O)Cc1ccc(S(=O)(=O)N2CCOCC2)s1)NCCc1ccccc1` it was -0.371; in that of `N#Cc1cc2c(nc1SCc1ccccc1)CCCC2=O`, 0.0828; in that of `Cn1c(=S)[nH]c2cccnc21`, 0.201. The result for `O=C(O)c1ccc(NC(=S)NC(NC(=O)c2ccco2)C(Cl)(Cl)Cl)cc1` (stereo unspecified) reads -0.0488; that for `Cc1ccc(NC(=O)C(=O)NC(C)C2COc3ccccc3O2)cc1` (stereo unspecified), -0.445. Turning to `CCOC(=O)c1cc(CC)sc1NC(=O)c1cc([N+](=O)[O-])ccc1N1CCOCC1`, the z-score was -0.0444. Consider `CCC(CO)Nc1ncc([N+](=O)[O-])cc1C#N` (stereo unspecified), for which the z-score was -0.425. The molecule `Cc1ccc(-c2ccc(=O)n(CC(=O)NCCCN3CCCCC3C)n2)cc1` (stereo unspecified) gave a z-score of 0.288. `O=C(CN1C(=O)NC2(CCCC2)C1=O)Nc1cccc(-c2nnc3n2CCCCC3)c1` gave a z-score of 0.325. As for `COc1ccccc1N1CCN(C(=O)c2cnn3cccnc23)CC1`, the z-score was -0.289. The result for `COc1ccc(C2=NOC(C(=O)NCc3ccccn3)C2)cc1` (stereo unspecified) reads 0.21; that for `Cc1ncc(N=Nc2ccccc2Cl)c(-c2ccccc2)n1`, -0.249; that for `CCOC(=O)CSc1nc2sc3c(c2c(=O)[nH]1)CC(C)(C)OC3`, -0.712. As to `Nc1cc(Cl)ccc1N1CCOCC1`, the z-score was 0.547.

Turning to `Cc1ccc(-c2cc(C(=O)NCc3ccco3)c3ccccc3n2)s1`, the z-score is -0.129.

`CC(C)C1C2=C(CC(C)(C)CC2=O)ON1c1ccccc1` (stereo unspecified) returned a z-score of -1.86. In the case of `CCN1CCN(c2nc(C)nc3c2sc(=S)n3C)CC1` it was -0.0392; in that of `Cc1cccc(NC(=S)NN(Cc2ccccc2)c2ccccc2)c1C`, -0.141; in that of `CC(C)OC(=O)CN1CCN(C2c3ccccc3-c3ccccc32)CC1`, 0.135. In the case of `Cc1[nH]c2ccc(F)cc2c1CCNC(=O)C1CCCCC1C(=O)OCC(F)(F)F` (stereo unspecified) it was -0.331; in that of `N#CC1=C(N)Oc2cc(O)ccc2C1C1CCCCC1` (stereo unspecified), -0.275; in that of `Cc1cccc(N2CCN(Cc3cc(=O)n4ccsc4n3)CC2)c1C`, -0.557. The result for `O=[N+]([O-])c1cc(C(F)(F)F)ccc1NN=C1CCCC1` reads -0.225.

`Cc1sc2ncnc(N3CCN(CCOc4ccc(Cl)cc4)CC3)c2c1C` returned a z-score of 0.146. The result for `CCOC(=O)c1ccc(OS(=O)(=O)c2ccccc2)c(OC)c1` reads -0.00708; that for `COc1ccc(S(=O)(=O)CCc2nnc(NC(=O)c3cccs3)s2)cc1`, -0.075. In the case of `COC(=O)c1ccc(C)c(NC(=O)CCSc2ccc(C)cc2)c1` it was -0.478. The result for `O=C(NN=C1CCCCCC1)c1cc(-c2ccccc2)nc2ccccc12` reads 0.713.

In turn, `O=C(CCc1nc2ccccc2s1)Nc1ccccc1` displayed a z-score of -0.0346. In the case of `Cc1sc2ncnc(NCCN3CCOCC3)c2c1C` it was -0.0966; in that of `CC1(C)S/C(=N/N=C/c2cccs2)NC1=O`, -0.204; in that of `CCn1c(SCC(=O)Nc2ccccc2C)nnc1-c1ccccc1O`, -0.0132. Molecule `CCn1c(Cc2ccc(OC)cc2)nnc1SCC(=O)NC1CCCCC1` had a z-score of 0.209. For the molecule `COc1cc(C(N)=O)cc(Br)c1OC`, the z-score came out at 0.364. The result for `CCCc1[nH]nc2c1C(CCc1ccccc1)C(C#N)=C(N)O2` (stereo unspecified) reads 0.128; that for `O=C(COC(=O)CSc1nnc(-c2ccc(Cl)cc2)o1)NCc1ccc2c(c1)OCO2`, -0.513; that for `Cc1cc(C)n2nc3nc4c(cc3c2n1)CCCC4`, 0.941. In the case of `COc1ccc(C(=O)c2ccccc2)c(O)c1` it was -0.498; in that of `COc1cc(C)c(S(=O)(=O)NCc2cccs2)cc1C`, -1.12. In the case of `O=C(NCCc1ccccc1)C(=O)NCC1(c2ccccc2)CCCC1` it was 0.119; in that of `O=C(Nc1nc2ccccc2s1)C1CCCN1S(=O)(=O)c1ccc(Cl)cc1` (stereo unspecified), -0.802; in that of `COc1ccc(-c2nc(Cn3c(SCc4ccc(C)cc4)nc4ccncc43)c(C)o2)cc1OC`, -0.0367. `CN(C)c1nc(-c2ccc([N+](=O)[O-])cc2)cs1` came in with a z-score of -0.235. The result for `CC(=O)NC(CC(=O)NC12CC3CC(CC(C3)C1)C2)c1ccccc1` (stereo unspecified) reads 0.359; that for `O=C(OCCCN=C1NS(=O)(=O)c2ccccc21)c1ccccc1F`, -1.1; that for `CCOC(=O)CS(=O)(=O)c1ccc2ccccc2c1`, -0.0129. With `O=C1C(Cl)=C(Nc2ccc(F)cc2)C(=O)N1CCc1ccccc1`, the z-score was 0.0827.

`Cc1ccc(C(=O)Oc2oc(-c3ccccc3)nc2C=Nc2ccc(N(C)C)cc2)cc1`: the z-score is -0.144.

The values above are taken from PubChem BioAssay AID488969 (Vanderbilt High Throughput Screening Facility, 2010).
